One experiment deals with CaSte2. The conditions noted are these: biosensor with no protease; 10-h incubation.
Experiment [1] deals with AfuSte2 (first member), ScSte2 (second member). It is filed as cell-based, A. fumigatus.

Residues, ends and D or L forms follow the SMILES beside them. No end group written: not given here.

Broadly, the EC50 is the concentration that produces a half-maximal response. Read a low EC50 as an effect from little substance. On to GARLTNFGYFEPA [CaPep2A13A], for which, in the experiment on CaSte2, the EC50 was roughly 50 nM.
GARLTNFGYFEPG [CaPep2A] displayed an EC50 in the experiment on CaSte2 of roughly 50 nM.
On to `CC(C)C[C@H](NC(=O)[C@H](Cc1c[nH]cn1)NC(=O)[C@H](CS)NC(=O)[C@@H](N)Cc1c[nH]c2ccccc12)C(=O)N1CCC[C@H]1C(=O)NCC(=O)N[C@@H](CCC(N)=O)C(=O)NCC(=O)N[C@@H](CS)C(=O)O` [AfuPep] (H-WCHLPGQGC-OH; N-terminus and C-terminus assumed), for which the “EC50 shift compared to simple split sensor” value in experiment [1] is “does not lead to stronger EC50 shift”.
